Assay [1] deals with CLP model used to induce severe grade sepsis. It counts as in vivo. Conditions: control: saline plus 12.5 mg/kg imipenem twice daily; male mice.
Assay [2] shares this test system. Briefly: L4L-121 Efficacy Study 1, CLP model. As to conditions: control: 0.9% saline IP daily plus 12.5 mg/kg imipenem twice daily; male mice.
Assay [3] shares this test system. Type of assay: in vivo. Conditions: control: saline vehicle plus 12.5 mg/kg imipenem twice daily; female mice.
Assay [4] shares this test system. Type of assay: in vivo. As to conditions: control: saline vehicle plus 12.5 mg/kg imipenem twice daily; female mice. The source holds these as a separate data set.

In general, mortality refers to the percentage killed.

SMILES strings stand for the structures. Like-named read-outs stand apart in the source and are kept apart here.

Consider `C[C@@H](O)[C@H]1C(=O)N2C(C(=O)O)=C(SCCN=CN)C[C@H]12` [imipenem], for which the values for the mortality in assay [1] and in assay [2] were 60% and 50%, respectively. Further, the death in assay [3] and in assay [4] was 70% throughout.

These data come from patent US20230277494A1, “TRANS-CROCETIN COMPOSITIONS AND TREATMENT REGIMENS” (priority 2020, published 2023).
